Experimental data as given in article PMC2830818 (The Journal of neuroscience : the official journal of the …, 2010).

Tests used:
Test in all cases: co-IP
[1] = target: T1, recombinant FKBP51 W90A (UniProt Q13451 1-457, W90A)
T1 sequence (looked up): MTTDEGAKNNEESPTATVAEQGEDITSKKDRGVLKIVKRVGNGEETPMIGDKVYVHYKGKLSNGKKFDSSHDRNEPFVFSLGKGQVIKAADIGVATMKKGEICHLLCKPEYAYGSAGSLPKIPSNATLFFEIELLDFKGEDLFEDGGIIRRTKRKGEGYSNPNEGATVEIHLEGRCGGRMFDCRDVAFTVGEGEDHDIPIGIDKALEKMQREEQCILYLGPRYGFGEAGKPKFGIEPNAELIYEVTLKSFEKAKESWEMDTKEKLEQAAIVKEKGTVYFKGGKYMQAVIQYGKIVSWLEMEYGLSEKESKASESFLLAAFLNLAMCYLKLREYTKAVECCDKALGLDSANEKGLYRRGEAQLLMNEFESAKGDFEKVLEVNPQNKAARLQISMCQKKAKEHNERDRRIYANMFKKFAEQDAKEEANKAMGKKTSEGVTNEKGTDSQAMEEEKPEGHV

[2] = target: T2, recombinant FKBP51 F130A (UniProt Q13451 1-457, F130A)
T2 sequence (looked up): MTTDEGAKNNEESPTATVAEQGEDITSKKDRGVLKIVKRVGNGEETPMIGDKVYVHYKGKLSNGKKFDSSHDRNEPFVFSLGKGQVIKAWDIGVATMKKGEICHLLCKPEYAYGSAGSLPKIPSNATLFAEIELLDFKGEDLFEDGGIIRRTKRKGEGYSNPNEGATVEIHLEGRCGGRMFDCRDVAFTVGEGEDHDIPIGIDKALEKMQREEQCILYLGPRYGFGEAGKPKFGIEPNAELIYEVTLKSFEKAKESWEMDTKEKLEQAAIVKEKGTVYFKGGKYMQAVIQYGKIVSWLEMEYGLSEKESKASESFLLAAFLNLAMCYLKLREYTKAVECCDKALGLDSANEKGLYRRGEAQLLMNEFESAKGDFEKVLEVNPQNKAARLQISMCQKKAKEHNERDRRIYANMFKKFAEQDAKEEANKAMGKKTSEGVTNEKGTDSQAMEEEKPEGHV

[3] = target: T3, recombinant wild-type FKBP51 (UniProt Q13451 1-457)
T3 sequence (looked up): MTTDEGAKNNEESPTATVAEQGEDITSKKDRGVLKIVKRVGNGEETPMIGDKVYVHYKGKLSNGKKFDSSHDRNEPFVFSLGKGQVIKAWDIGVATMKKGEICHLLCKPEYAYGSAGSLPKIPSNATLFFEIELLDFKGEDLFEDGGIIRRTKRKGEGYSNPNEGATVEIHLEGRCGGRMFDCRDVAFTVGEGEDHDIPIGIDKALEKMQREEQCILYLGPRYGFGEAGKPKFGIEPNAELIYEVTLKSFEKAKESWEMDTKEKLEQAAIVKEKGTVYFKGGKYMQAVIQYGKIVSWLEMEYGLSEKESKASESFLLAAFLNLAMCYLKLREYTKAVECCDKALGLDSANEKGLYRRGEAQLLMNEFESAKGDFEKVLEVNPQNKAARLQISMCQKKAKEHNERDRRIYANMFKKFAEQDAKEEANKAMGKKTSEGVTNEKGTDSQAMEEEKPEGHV

Measured: binding result

B1: recombinant wildtype 4R0N tau (natural protein)
chain: not shown
binds: all assays above
